Test results taken from PubChem BioAssay AID686979 (National Center for Advancing Translational Sciences (NCATS), 2013).
Hit rate of the full screen: of about 420,000 compounds, about 50,000 (12%) were called active. This list was built around the results that the source calls inconclusive (neither active nor inactive); the mix of calls is not that of the screen. The call rests on the fitted dose curve; in most records, active means well fitted inhibition curve with a large enough effect; inconclusive means small, poorly fitted or top-dose-only effect; inactive means flat fitted curve, though single readings scatter. No potency is given beside an inconclusive call; the fits are too rough.
On the % scale 0 is the no-effect control and ±100 the full control effect; potency means the concentration at half of the fitted maximal effect; tags describe the fitted curve by direction and shape.

Test: qHTS for Inhibitors of human tyrosyl-DNA phosphodiesterase 1 (TDP1): qHTS in cells in presence of CPT; further: nearly all actives have a fitted effect of over 55% in size
Details: chicken DT40 Tdp1-/-;hTDP1 cells + 20 nM CPT, ATP luminescence, 48 h; activity change, negative = growth inhibition: at 46.2 µM (top of the series) unless noted
Outline: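 Chicken DT40 Tdp1-/- cells complemented with human TDP1, 400 cells/well, exposed to compounds plus 20 nM camptothecin for at least 48 h at 37 C; viability read as ATP content by CellTiter-Glo luminescence.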
For S=c1[nH]c(-c2ccccc2)cn1/N=C/c1ccncc1, the “activity change, negative = growth inhibition” value was inactive: -1.18%. In the case of O=C(N/N=C/c1cc([N+](=O)[O-])ccc1O)c1ccc2c(c1)OCCO2, the Potency is reported as active: 2.06 µM. For Cc1c(NC(=O)c2nn(CC(C)C)c(=O)c3ccccc23)c(=O)n(-c2ccccc2)n1C, the “activity change, negative = growth inhibition” value was inactive: -2.47%. In the case of O=S(=O)(NCCc1csc(-c2cccc(F)c2)n1)c1cc(F)ccc1F, the Potency is reported as inconclusive [inhibitor, single point]. With C=CCc1cc(/C=N/n2cnnc2)cc(OCC)c1O the “activity change, negative = growth inhibition” value was inactive: 2.76%. With c1ccc(OCc2nnc(-c3ccccc3)o2)cc1 the “activity change, negative = growth inhibition” value was inactive: -0.106%. In the case of Cc1sc2ncnc(N3CCN(C(=O)c4ccco4)CC3)c2c1C, the “activity change, negative = growth inhibition” value is reported as inactive: -19.2%. For Cc1ccc(N2CC(C(=O)OCC(=O)c3c(N)n(CC(C)C)c(=O)n(C)c3=O)CC2=O)cc1 (configuration not stated), the “activity change, negative = growth inhibition” value was inactive: -37.7%. For Cc1cc2ncn(S(=O)(=O)c3ccc(S(=O)(=O)N4CCCCCC4)cc3)c2cc1C, the Potency was active: 16.4 µM. For CCOc1cccc(-c2cnc3cccnn23)c1, the Potency was inconclusive [inhibitor, single point]. For CCn1c(C(=O)Nc2ccccc2C(=O)OC)cc2sc(Cl)cc21, the “activity change, negative = growth inhibition” value was inactive: 0.315%. With COc1ccc(-n2nc3c(=O)[nH][nH]c3cc2=O)cc1 the Potency was inconclusive [inhibitor, partial curve, poor fit]. With CCCCCCCCCCOc1cc2c(=O)c(C(=O)OCC)c[nH]c2cc1OCC the “activity change, negative = growth inhibition” value was inactive: 2.33%. In the case of O=C(CNC(=O)c1cccs1)N/N=C/c1ccc(Cl)cc1, the “activity change, negative = growth inhibition” value is reported as inactive: 0.159%. With CC(=O)Nc1cc(-c2cccc(C(=O)N(C)C)c2)cn2c(-c3ccc(F)cc3)cnc12 the Potency was inconclusive [inhibitor, single point]. For O=C1CCc2cc(S(=O)(=O)NCc3ccccc3)cc3c2N1CC3, the Potency was “inactive”. With COc1ccc(CCNC(=O)c2cc(Nc3ccccc3)nc3ccccc23)cc1OC the Potency was active: 9.2 µM. With O=C(N/N=C/c1cccn1-c1ccc(O)cc1)c1cccc2ccccc12 the Potency was inconclusive [inhibitor, single point]. In the case of COc1ccc(-c2cc(C(=O)Nc3ccc(C)c(C)c3)no2)cc1, the Potency is reported as inconclusive [inhibitor, partial curve]. With COc1ccccc1N1CCN(C(c2ccc(F)cc2)c2nnnn2C(C)C)CC1 (configuration not stated) the “activity change, negative = growth inhibition” value was inactive: 0.319%. With CCCCNC(=O)N(O)C1N(/N=C/c2ccco2)C(=S)SC1(C)C (configuration not stated) the “activity change, negative = growth inhibition” value was inactive: -5.84%. For O=C(Nc1ccc(S(=O)(=O)N(Cc2ccccc2)c2ccccc2)cc1)c1ccccc1F, the Potency was inconclusive [inhibitor, full curve]. For O=c1c2cc(Br)ccc2[nH]c(=S)n1Cc1cccnc1, the “activity change, negative = growth inhibition” value was inactive: -22.3%. For O=C(Cc1csc(N2CCOCC2)n1)N/N=C/c1ccc(O)c(O)c1O, the Potency was inconclusive [inhibitor, single point]. With CC(CNC(=O)CN(C)CC(=O)Nc1ccccc1Br)c1ccccc1 (configuration not stated) the “activity change, negative = growth inhibition” value was inactive: -9.99%. In the case of CS(=O)(=O)N1CCN(Cc2ccc(C(F)(F)F)cc2)CC1, the “activity change, negative = growth inhibition” value is reported as inactive: -28.6%. For CCn1cc(Br)c(C(=O)NC(=S)Nc2ccc(C(=O)OC)cc2)n1, the Potency was inconclusive [inhibitor, single point]. For CC1CCc2nc(NC(=O)C3COc4ccccc4O3)sc2C1 (configuration not stated), the Potency was active: 16.4 µM. For COc1ccc(OC)c(C2=Nn3c(nnc3-c3cccc(OC(C)C)c3)SC2)c1, the Potency was active: 13 µM. With CCc1ccc(-c2n[nH]nc2C2=CC(=O)C[C@H](c3ccc(F)cc3)C2)cc1 the Potency was inconclusive [inhibitor, single point]. For O=C(Nc1ccc(Oc2cccc3ccccc23)cc1)c1ccco1, the activity change, negative = growth inhibition was inconclusive: -30.6% [inhibitor]. In the case of CC(C)(O)C#Cc1ccc(CN2CCN(CCc3ccccc3)C(CCO)C2)s1 (configuration not stated), the Potency is reported as inconclusive [inhibitor, single point]. In the case of CCCCSc1ncc(C(=O)OCC)c(N)n1, the Potency is reported as inconclusive [inhibitor, single point]. For COC(=O)c1c(NC(=O)c2cccc(S(=O)(=O)N3CCN(C)CC3)c2)sc(C)c1C, the Potency was active: 14.6 µM. For COc1cccc(CC(O)CC2c3c(cc4c(c3OC)OCO4)CCN2C)c1 (configuration not stated), the Potency was active: 20.6 µM. For COc1ccccc1Nc1ccc(C(=O)O)cc1[N+](=O)[O-], the “activity change, negative = growth inhibition” value was inactive: -11.6%. In the case of CC1(c2ccc(Cl)cc2)NC(=O)N(CC(=O)Nc2ccc(F)cc2)C1=O (configuration not stated), the “activity change, negative = growth inhibition” value is reported as inactive: -21.7%. With CC(C)(C)OC(=O)N1CCC[C@H]1c1nnc(SCc2ccccc2Cl)o1 the Potency was inconclusive [inhibitor, single point]. For COc1ccc(CN2CCN(Cc3cccn3-c3ncccn3)CC2CCO)c(C)c1C (configuration not stated), the Potency was inconclusive [inhibitor, partial curve]. For Cc1cccc(NS(=O)(=O)c2cc(C(=O)NCc3ccccn3)ccc2C)c1, the “activity change, negative = growth inhibition” value was inactive: -13.7%. In the case of C/C(=N\Nc1nncc2ccccc12)c1ccc(C(C)(C)C)cc1, the Potency is reported as inconclusive [inhibitor, single point]. For Cc1cccc(Nc2c(-c3ccc(O)cc3)nc3ncccn23)c1, the Potency was inconclusive [inhibitor, single point]. For COc1cc2nc(=S)n(CCCN3CCOCC3)c(N)c2cc1OC, the “activity change, negative = growth inhibition” value was inactive: -7.03%. For COc1ccc(Cc2c(O)nc(SC)n(C(C)=O)c2=O)cc1, the “activity change, negative = growth inhibition” value was inactive: -18.1%. For O=S(=O)(Nc1ncccn1)c1ccc(NC(=S)N2CCN(Cc3ccc(F)cc3Cl)CC2)cc1, the “activity change, negative = growth inhibition” value was inactive: 3.26%. In the case of COc1ccc(/C=N/NC(=O)c2cccnc2)cc1CN1CCCc2ccccc21, the Potency is reported as inconclusive [inhibitor, single point]. With O=C(CCCCn1c(=O)c2ccccc2n(Cc2ccc(F)cc2Cl)c1=O)NCCc1ccc(Cl)cc1 the Potency was inconclusive [inhibitor, single point]. In the case of COc1ccccc1C#CC1=CC(=O)C[C@H](c2ccc(F)cc2)C1, the Potency is reported as active: 14.6 µM. For CCOc1ccc(S(=O)(=O)Nc2ccc3c(c2)CCCN3C(=O)c2cccs2)cc1, the Potency was inconclusive [inhibitor, single point]. In the case of C=C(C)CNC(=S)Nc1cccc2cnccc12, the “activity change, negative = growth inhibition” value is reported as inactive: -6.29%. For COc1ccc(CNC(=O)CC(C)CC2=NS(=O)(=O)c3ccccc3N2)cc1 (configuration not stated), the Potency was inconclusive [inhibitor, single point]. With CCCc1cc(=O)oc2c3c(cc(OCC(=O)NCCN4CCOCC4)c12)OC(C)(C)CC3 the Potency was inconclusive [inhibitor, partial curve]. For CCOC(=O)c1ccc(Nc2c(-c3ccc(OC)cc3)nc3nc[nH]n23)cc1, the Potency was active: 20.6 µM. With CSc1ccc(OC2(C)CCN(Cc3ccc(-c4ccccn4)cc3)C2)cc1 (configuration not stated) the Potency was inconclusive [inhibitor, single point]. With CCN(c1cccc(C)c1)S(=O)(=O)c1ccc2c(c1)N(C(C)=O)CCS2 the Potency was inconclusive [inhibitor, single point]. In the case of Cc1cc(C)n2c(Nc3c(C)cccc3C)c(CCc3ccccc3)nc2n1, the Potency is reported as inconclusive [inhibitor, single point]. With O=C(NCc1ccc2c(c1)OCO2)c1cccnc1Cl the “activity change, negative = growth inhibition” value was inactive: -11.3%. With Cc1ccc(S(=O)(=O)N2CCN(c3nc(-n4ccnc4)nc4ccccc34)CC2)cc1 the “activity change, negative = growth inhibition” value was inactive: -16.7%. With COc1ccccc1CNC(=O)Cc1c(C)c2cc3c(C)coc3c(C)c2oc1=O the Potency was active: 16.4 µM. With Cc1cccc(Nc2nnc(SCc3cn4ccsc4n3)s2)c1 the Potency was inconclusive [inhibitor, single point]. For Cc1ccc2c(c1)sc(=NC(=O)C1CC1)n2C, the activity change, negative = growth inhibition was inconclusive: -34% [inhibitor]. In the case of Cc1ccc(-c2noc(CN(C)C(=O)Nc3ccc(F)cc3)n2)cc1, the “activity change, negative = growth inhibition” value is reported as inactive: 10.2%. In the case of CC(=O)c1cccc(NC(=O)c2sc3nc4n(c(=O)c3c2C)CCCCC4)c1, the Potency is reported as inconclusive [inhibitor, single point]. For Cc1cccc(COCC(Cc2ccccc2)N2CCN(C(=O)c3cccc(Cl)c3)CCC2=O)c1 (configuration not stated), the Potency was active: 25.9 µM. With CC1=NN(c2ccccc2)C(=O)C1C(=O)c1cc([N+](=O)[O-])cc([N+](=O)[O-])c1 (configuration not stated) the “activity change, negative = growth inhibition” value was inactive: 1.55%. For Cc1ccc(S(=O)(=O)NCC(=O)N(CC(=O)NCC2CCCO2)Cc2ccccc2Cl)cc1 (configuration not stated), the “activity change, negative = growth inhibition” value was inactive: -9.14%. With O=C(CNC(=O)C1CCCCC1)OCCOc1ccccc1 the “activity change, negative = growth inhibition” value was inactive: -1.57%. With O=C(Nc1ccc(Cl)cc1)[C@@H]1[C@@H]2C(=O)N(c3ccc(Cl)cc3)C(=O)[C@@H]2[C@H]2C=CC=NN21 the Potency was inconclusive [inhibitor, single point]. In the case of CCN(CC)C(=O)C1=C(C)Nc2nc3ccccc3n2C1c1ccccc1F (configuration not stated), the Potency is reported as inconclusive [inhibitor, single point]. For CCOc1ccc2[nH]c(=O)c(CN(CCCO)S(=O)(=O)c3ccc(F)cc3)cc2c1, the Potency was inconclusive [inhibitor, single point]. With CCC(=O)N1CCc2cc(CNC(=O)Nc3cc(OC)c(OC)c(OC)c3)ccc21 the “activity change, negative = growth inhibition” value was inactive: -16.7%. With O=[N+]([O-])c1ccc2c(c1)C(O)n1nc(-c3ccc(Cl)cc3Cl)nc1S2 (configuration not stated) the “activity change, negative = growth inhibition” value was inactive: -8.07%. For COc1cccc(OC)c1OCCN1CCC(C(=O)NC(c2ccccc2)c2ncccc2C)CC1 (configuration not stated), the Potency was inconclusive [inhibitor, single point]. In the case of COc1ccc(CCN2CC(C(=O)NCC(=O)Nc3ccc(F)c(F)c3)CC2=O)cc1OC (configuration not stated), the “activity change, negative = growth inhibition” value is reported as inactive: 3.45%. With CCOc1cc(-c2noc(CCC(=O)N3CCOCC3)n2)ccc1OC the Potency was inconclusive [inhibitor, single point]. In the case of COc1ccc(-c2nc3cc(F)ccc3cc2CN(C(=O)c2ccc3c(c2)OCO3)C2CC2)cc1, the “activity change, negative = growth inhibition” value is reported as inactive: 16.9%. With O=c1cc(O)c2ccc(O)cc2o1 the Potency was inconclusive [inhibitor, partial curve].
